# Results are given in words; binding and its absence hold for the method and conditions named. Binding seen in cells or lysates may run through a third protein. Some results given as binding are weak or reduced against the parent protein; the word gives no strength. For some assays here: Where a sequence is shown, tags or fusion partners need not be part of it.
# By UniProt entry, the sequences of proteins in these tests, tags left out.
# UniProt P14635: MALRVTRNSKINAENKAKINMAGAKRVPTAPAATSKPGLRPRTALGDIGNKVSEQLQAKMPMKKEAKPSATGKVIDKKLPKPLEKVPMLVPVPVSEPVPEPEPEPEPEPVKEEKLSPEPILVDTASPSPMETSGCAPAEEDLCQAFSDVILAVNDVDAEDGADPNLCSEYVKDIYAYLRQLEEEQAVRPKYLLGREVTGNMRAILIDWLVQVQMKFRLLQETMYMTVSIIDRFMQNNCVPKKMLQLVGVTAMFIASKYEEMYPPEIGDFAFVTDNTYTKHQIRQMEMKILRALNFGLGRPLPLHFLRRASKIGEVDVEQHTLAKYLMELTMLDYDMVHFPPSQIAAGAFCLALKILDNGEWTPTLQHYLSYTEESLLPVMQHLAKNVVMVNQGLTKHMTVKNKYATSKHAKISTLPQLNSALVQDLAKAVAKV
# Tests used:
# [1] = target: cyclin B1 (human (endogenous in HeLa)) (UniProt P14635); assay: co-IP; HeLa cells synchronised in G2 phase or mitosis (endogenous MAD1, or Flag-tagged MAD1 forms induced with tetracycline for 12 h); lysates in 0.5% NP-40, 140 mM NaCl, 10 mM KCl, 50 mM Hepes pH 7.2, 10% glycerol, 1 mM EDTA; anti-cyclin B1 (GNS1) on Protein G-Dynabeads, 1 h at 4°C; blotted with anti-MAD1 or anti-FLAG
# [2] = target: cyclin B1 (RPE cyclin B1-Venus+/−:Ruby-MAD2+/− cells) (human (endogenous in RPE1)) (UniProt P14635); assay: co-IP; RPE cyclin B1-Venus+/−:Ruby-MAD2+/− cells (parental, clones 7D2 and 8B12) enriched for G2 phase and mitosis; cyclin B1 immunoprecipitated, blotted with anti-MAD1
binding [1],binding [2],Binder
binds,–,"MAD1α (protein, UniProt Q9Y6D9-1 1-718) MEDLGENTMVLSTLRSLNNFISQRVEGGSGLDISTSAPGSLQMQYQQSMQLEERAEQIRSKSHLIQVEREKMQMELSHKRARVELERAASTSARNYEREVDRNQELLTRIRQLQEREAGAEEKMQEQLERNRQCQQNLDAASKRLREKEDSLAQAGETINALKGRISELQWSVMDQEMRVKRLESEKQELQEQLDLQHKKCQEANQKIQELQASQEARADHEQQIKDLEQKLSLQEQDAAIVKNMKSELVRLPRLERELKQLREESAHLREMRETNGLLQEELEGLQRKLGRQEKMQETLVGLELENERLLAKLQSWERLDQTMGLSIRTPEDLSRFVVELQQRELALKDKNSAVTSSARGLEKARQQLQEELRQVSGQLLEERKKRETHEALARRLQKRVLLLTKERDGMRAILGSYDSELTPAEYSPQLTRRMREAEDMVQKVHSHSAEMEAQLSQALEELGGQKQRADMLEMELKMLKSQSSSAEQSFLFSREEADTLRLKVEELEGERSRLEEEKRMLEAQLERRALQGDYDQSRTKVLHMSLNPTSVARQRLREDHSQLQAECERLRGLLRAMERGGTVPADLEAAAASLPSSKEVAELKKQVESAELKNQRLKEVFQTKIQEFRKACYTLTGYQIDITTENQYRLTSLYAEHPGDCLIFKATSPSGSKMQLLETEFSHTVGELIEVHLRRQDSIPAFLSSLTLELFSRQTVA"
–,binds,"MAD1 (parental RPE cells) (protein, UniProt Q9Y6D9 1-718) MEDLGENTMVLSTLRSLNNFISQRVEGGSGLDISTSAPGSLQMQYQQSMQLEERAEQIRSKSHLIQVEREKMQMELSHKRARVELERAASTSARNYEREVDRNQELLTRIRQLQEREAGAEEKMQEQLERNRQCQQNLDAASKRLREKEDSLAQAGETINALKGRISELQWSVMDQEMRVKRLESEKQELQEQLDLQHKKCQEANQKIQELQASQEARADHEQQIKDLEQKLSLQEQDAAIVKNMKSELVRLPRLERELKQLREESAHLREMRETNGLLQEELEGLQRKLGRQEKMQETLVGLELENERLLAKLQSWERLDQTMGLSIRTPEDLSRFVVELQQRELALKDKNSAVTSSARGLEKARQQLQEELRQVSGQLLEERKKRETHEALARRLQKRVLLLTKERDGMRAILGSYDSELTPAEYSPQLTRRMREAEDMVQKVHSHSAEMEAQLSQALEELGGQKQRADMLEMELKMLKSQSSSAEQSFLFSREEADTLRLKVEELEGERSRLEEEKRMLEAQLERRALQGDYDQSRTKVLHMSLNPTSVARQRLREDHSQLQAECERLRGLLRAMERGGTVPADLEAAAASLPSSKEVAELKKQVESAELKNQRLKEVFQTKIQEFRKACYTLTGYQIDITTENQYRLTSLYAEHPGDCLIFKATSPSGSKMQLLETEFSHTVGELIEVHLRRQDSIPAFLSSLTLELFSRQTVA"
–,no binding,"MAD1 E53K/E56K (RPE clones 7D2 and 8B12) (protein, UniProt Q9Y6D9 1-718) MEDLGENTMVLSTLRSLNNFISQRVEGGSGLDISTSAPGSLQMQYQQSMQLEKRAKQIRSKSHLIQVEREKMQMELSHKRARVELERAASTSARNYEREVDRNQELLTRIRQLQEREAGAEEKMQEQLERNRQCQQNLDAASKRLREKEDSLAQAGETINALKGRISELQWSVMDQEMRVKRLESEKQELQEQLDLQHKKCQEANQKIQELQASQEARADHEQQIKDLEQKLSLQEQDAAIVKNMKSELVRLPRLERELKQLREESAHLREMRETNGLLQEELEGLQRKLGRQEKMQETLVGLELENERLLAKLQSWERLDQTMGLSIRTPEDLSRFVVELQQRELALKDKNSAVTSSARGLEKARQQLQEELRQVSGQLLEERKKRETHEALARRLQKRVLLLTKERDGMRAILGSYDSELTPAEYSPQLTRRMREAEDMVQKVHSHSAEMEAQLSQALEELGGQKQRADMLEMELKMLKSQSSSAEQSFLFSREEADTLRLKVEELEGERSRLEEEKRMLEAQLERRALQGDYDQSRTKVLHMSLNPTSVARQRLREDHSQLQAECERLRGLLRAMERGGTVPADLEAAAASLPSSKEVAELKKQVESAELKNQRLKEVFQTKIQEFRKACYTLTGYQIDITTENQYRLTSLYAEHPGDCLIFKATSPSGSKMQLLETEFSHTVGELIEVHLRRQDSIPAFLSSLTLELFSRQTVA"
binds,–,"Flag-epitope tagged MAD1α (protein, UniProt Q9Y6D9-1 1-718) MEDLGENTMVLSTLRSLNNFISQRVEGGSGLDISTSAPGSLQMQYQQSMQLEERAEQIRSKSHLIQVEREKMQMELSHKRARVELERAASTSARNYEREVDRNQELLTRIRQLQEREAGAEEKMQEQLERNRQCQQNLDAASKRLREKEDSLAQAGETINALKGRISELQWSVMDQEMRVKRLESEKQELQEQLDLQHKKCQEANQKIQELQASQEARADHEQQIKDLEQKLSLQEQDAAIVKNMKSELVRLPRLERELKQLREESAHLREMRETNGLLQEELEGLQRKLGRQEKMQETLVGLELENERLLAKLQSWERLDQTMGLSIRTPEDLSRFVVELQQRELALKDKNSAVTSSARGLEKARQQLQEELRQVSGQLLEERKKRETHEALARRLQKRVLLLTKERDGMRAILGSYDSELTPAEYSPQLTRRMREAEDMVQKVHSHSAEMEAQLSQALEELGGQKQRADMLEMELKMLKSQSSSAEQSFLFSREEADTLRLKVEELEGERSRLEEEKRMLEAQLERRALQGDYDQSRTKVLHMSLNPTSVARQRLREDHSQLQAECERLRGLLRAMERGGTVPADLEAAAASLPSSKEVAELKKQVESAELKNQRLKEVFQTKIQEFRKACYTLTGYQIDITTENQYRLTSLYAEHPGDCLIFKATSPSGSKMQLLETEFSHTVGELIEVHLRRQDSIPAFLSSLTLELFSRQTVA"
binds,–,"MAD1-Flag (39-329aa), wild type (domain or fragment, UniProt Q9Y6D9 39-329) GSLQMQYQQSMQLEERAEQIRSKSHLIQVEREKMQMELSHKRARVELERAASTSARNYEREVDRNQELLTRIRQLQEREAGAEEKMQEQLERNRQCQQNLDAASKRLREKEDSLAQAGETINALKGRISELQWSVMDQEMRVKRLESEKQELQEQLDLQHKKCQEANQKIQELQASQEARADHEQQIKDLEQKLSLQEQDAAIVKNMKSELVRLPRLERELKQLREESAHLREMRETNGLLQEELEGLQRKLGRQEKMQETLVGLELENERLLAKLQSWERLDQTMGLSIR"

# Source: PMC7265330
